# PubChem BioAssay AID686970 (National Center for Advancing Translational Sciences (NCATS), 2013)
# Where “and” joins values, the source holds several entries; their conditions need not be identical. Equal values may be shown once. In all, about 360,000 compounds went through this assay and about 6,000 (1.7%) were called active. Inconclusive means that the source gave no clear call. Such entries were picked first, then a sample of the others. The call rests on the fitted dose curve; in most records, active means well fitted cell-killing curve with a large enough effect; inconclusive means small, poorly fitted or top-dose-only effect, or effect the other way; inactive means flat fitted curve, though single readings scatter. Potencies of inconclusive entries are doubtful fits and often do not repeat.
# Assay: qHTS for induction of synthetic lethality in tumor cells producing 2HG: qHTS for the HT-1080-NT fibrosarcoma cell line;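 further: NT is the 2HG producing partner of a matched IDH1 knockdown line; nearly all actives have a fitted effect of over 55% in size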;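 on activity, negative = less viability: 0% = DMSO-treated cells and -100% = media-only wells without cells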
# Details: HT-1080-NT fibrosarcoma viability, CellTiter-Glo ATP luminescence, 48 h; activity, negative = less viability: at 46.1 µM (top of the series) unless noted
# Outline: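 Compounds were tested in concentration-response format on HT-1080-NT cells for 48 hours at 37 degrees C. Cell viability came from CellTiter-Glo luminescence; curves were classified by r2, response magnitude and activity.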
# Potency means the concentration at half of the fitted maximal effect; tags describe the fitted curve by direction and shape.
SMILES,Potency,"activity, negative = less viability"
CCOC(=O)C1CCN(C(=O)CSc2nnc(-c3ccco3)n2-c2ccccc2)CC1,inactive,–
CCc1cc(C(=O)Cc2ccc(F)cc2)c(O)cc1O,"inconclusive: 20.6 µM [cytotoxic, single point]",–
c1cncc(-c2ccnc3ncnn23)c1,inactive,–
COc1ccc(CNC(=O)c2cn(Cc3ccccc3F)c(=O)s2)cc1,inactive,–
CCCCOc1ccc(C(=O)N2CCN(CC(=O)Nc3ccc(C)cc3)CC2)cc1OC,"inconclusive: 7.31 µM [cytotoxic, partial curve]",–
Cc1ccc(C)c(S(=O)(=O)NC2CCSC2=O)c1 (centres undefined),inactive,–
O=C(CN1CCC(Cc2ccccc2)CC1)NCCc1ccc(F)cc1,inactive,–
CC(C)C(=O)Nc1cccc(COc2ccc(CN(CCc3ccccc3)C(=O)OC(C)(C)C)cc2)c1,"inconclusive: 0.92 µM [cytotoxic, full curve, poor fit]",–
NC(=O)c1cc(S(=O)(=O)N2CCOCC2)ccc1N1CCCC1,"inconclusive: 23.1 µM [rising, single point]",–
Cc1ccccc1CN1CCC(CNC(=O)C2CCCN(c3ncnc4c3nc3n4CCCCC3)C2)CC1 (centres undefined),"inconclusive: 23.1 µM [cytotoxic, single point]",–
Nc1ncnc(N)c1N=Nc1ccccc1,"inconclusive: 16.4 µM [cytotoxic, single point]",–
Cc1ccccc1Cn1c2ccccc2c2cnn(CC(=O)NCc3ccccn3)c(=O)c21,"inconclusive: 23.1 µM [cytotoxic, single point]",–
COc1ccc(-c2nc(N3CCOCC3)nc3n[nH]c(N)c23)cc1,–,inconclusive: -30.2% [cytotoxic]
COc1ccc(C(C)=O)cc1CSc1nnc(-c2ccc(Cl)cc2)n1-c1ccccc1,"inconclusive: 23.1 µM [cytotoxic, partial curve]",–
CN(C)c1ncc(S(=O)(=O)c2ccccc2)c(-c2ccc(Cl)cc2Cl)n1,inactive,–
Cc1cc(NC(=O)c2ccc3c(c2)OCCO3)ccc1NC(=O)c1cc2ccccc2o1,"inconclusive: 16.4 µM [cytotoxic, single point]",–
Cn1c(CC2Sc3ccccc3NC2=O)nnc1SCC(=O)c1ccc(Cl)cc1 (centres undefined),"inconclusive: 23.1 µM [cytotoxic, single point]",–
CC(C)(C)c1ccc(S(=O)(=O)NNC(=O)c2cc3ccccc3[nH]2)cc1,active: 20.6 µM,–
CCOC(=O)c1ccc(N=c2sc(C(=O)OC)cc(=O)n2CCCN2CCOCC2)cc1,"inconclusive: 16.4 µM [cytotoxic, single point] and inconclusive: 20.6 µM [cytotoxic, single point]",–
COC(=O)c1c[n+]([O-])ccc1OC,"inconclusive: 29.1 µM [rising, single point]",–
O=C(/C=C/c1ccc(S(=O)(=O)NCc2ccco2)cc1)NCc1ccccc1Cl,"inconclusive: 23.1 µM [cytotoxic, single point]",–
CCc1ccc2[nH]c(=O)c(CN(Cc3ccc4c(c3)OCO4)Cc3nnnn3C3CCCC3)cc2c1,"inconclusive: 22.4 µM [cytotoxic, single point]",–
CN(C)S(=O)(=O)c1ccc(Cl)c(NC(=O)CSc2nc3ccccc3c(=O)n2CCCN2CCOCC2)c1,inactive,–

SMILES,Potency,"activity, negative = less viability"
CS(=O)(=O)Nc1ccc(C(=O)NCCSCc2ccccc2)cc1,inactive,–
COc1ccc(CNCc2ccncc2)cc1OC,inactive,–
COC(=O)C12CC3CC(C1)CC(n1cnc(Cl)n1)(C3)C2,inactive,–
COc1ccc2c(c1)C(=O)N1[C@H]3c4cc(Br)ccc4OC[C@@H]3[C@H](c3ccccc3)[C@]1(C)C(=O)N2,"inconclusive: 5.8 µM [cytotoxic, full curve]",–
COC(=O)c1cc(=O)n(CCc2ccc(OC)cc2)c(=Nc2ccc(F)c(Cl)c2)s1,active: 20.6 µM,–
Cn1nc(C2CC2)cc1NC(=O)C1(C)CCN1C(=O)Cc1ccc(-c2ccccc2)cc1 (centres undefined),inactive,–
Cc1cc(C(=O)N2CCN(c3ccc(C(F)(F)F)cn3)CC2)c(C)o1,"inconclusive: 29.1 µM [cytotoxic, single point]",–
O=C(NCc1nc(-c2ccc(C(F)(F)F)cc2)no1)Nc1ccc(OC(F)(F)F)cc1,active: 25.9 µM,–
COc1ccc(OCCCC(=O)OCC(=O)Nc2nnc(-c3ccccc3)o2)cc1,–,inactive: -1.76% [at 9.24 µM]
O=C(Nc1cnc2ccccc2c1)c1cccnc1,inactive,–
O=C(Nc1ccc(S(=O)(=O)N2CCOCC2)cc1)c1cc([N+](=O)[O-])ccc1Cl,"inconclusive: 8.2 µM [cytotoxic, partial curve, poor fit]",–
NS(=O)(=O)c1ccc(Sc2nc3ccccc3s2)c([N+](=O)[O-])c1,"inconclusive: 8.2 µM [cytotoxic, partial curve]",–
C[C@@H]1[C@H](O)C[C@@]23COC(=O)C2=CCCC3[C@@]1(C)CCC1COC(=O)C1 (some centres undefined),"inconclusive: 29.1 µM [rising, single point]",–
COc1ccc2c(c1)[C@H]1[C@H](CO2)[C@H](c2ccccc2)[C@]2(C)C(=O)Nc3cc(F)ccc3C(=O)N12,"inconclusive: 29.1 µM [cytotoxic, single point]",–
Cc1ccc(-c2c(C(=O)NNC(=S)NCC3CCCO3)csc2C)cc1 (centres undefined),inactive,–
O=C(NC1CCCCC1)C(c1ccc(F)cc1)N(CCc1ccccc1)C(=O)CN1C(=O)c2ccccc2S1(=O)=O (centres undefined),"inconclusive: 3.26 µM [cytotoxic, full curve]",–
CCOc1ccc(NC(=O)c2cc(OC)nc3ccccc23)cc1,active: 0.461 µM,–
CCCCCCCNC(=O)C1(CC2CC(c3ccc(Cl)cc3)=NO2)CCN(C(=O)Cc2ccc(F)cc2)CC1 (centres undefined),inactive,–
O=C(NC1CCCCCC1)c1cc2c(=O)n3ccccc3nc2s1,"inconclusive: 29.1 µM [cytotoxic, single point]",–
O=C(c1ccc(F)cc1)C(CCCCCC(CN1CCOCC1)C(=O)c1ccc(F)cc1)CN1CCOCC1 (centres undefined),"inconclusive: 25.9 µM [cytotoxic, partial curve]",–
CN(C)C(CNC(=O)c1cc(Br)ccc1Cl)c1ccco1 (centres undefined),inactive,–
O=c1c2cc(F)ccc2sn1-c1ccc(F)cc1,"inconclusive: 20.6 µM [cytotoxic, single point]",–
COc1ccc(C(C(=O)NC2CCCC2)N(C(=O)CNC(=O)c2ccco2)c2cccnc2)cc1 (centres undefined),inactive,–

SMILES,Potency,"activity, negative = less viability"
O=C(NCCc1ccccc1)c1cccnc1N1CCCCCC1,inactive,–
Cc1cc(C)n2nc(CNS(=O)(=O)c3ccc(C)c(C)c3)nc2n1,inactive,–
Cc1noc(C)c1CSCC(=O)Nc1nc2ccc(S(C)(=O)=O)cc2s1,inactive,–
CC(C)(C)C(=O)Nc1nc2cc3c(cc2s1)OCO3,"inconclusive: 29.1 µM [cytotoxic, single point]",–
COc1cccc(CSc2nc3ccccc3cc2C=O)c1,active: 18.4 µM,–
CCC(=O)N1N=C(c2ccc(NS(=O)(=O)c3ccc(C)cc3)cc2)CC1c1ccco1 (centres undefined),"inconclusive: 20.6 µM [cytotoxic, single point]",–
COC(=O)N=Nc1c(O)n(Cc2ccccc2)c2ccccc12,"inconclusive: 29.1 µM [rising, single point]",–
CCOC(=O)c1sc(C)c2c1NC(c1ccc(Cl)cc1)NC2=O (centres undefined),"inconclusive: 23.1 µM [cytotoxic, single point]",–
COC(C(=O)C(O)C(C)O)C1Cc2cc3cc(OC4CC(OC5CC(O)C(O)C(C)O5)C(O)C(C)O4)c(C)c(O)c3c(O)c2C(=O)C1OC1CC(OC2CC(OC3CC(O)C(OC)C(C)O3)C(O)C(C)O2)C(O)C(C)O1 (centres undefined),"inconclusive: 0.0058 µM [cytotoxic, full curve, poor fit]",–
N#CC(c1ccc([N+](=O)[O-])cc1)C(CC(=O)c1ccccc1)c1ccccc1 (centres undefined),inactive,–
CCCn1c(=O)n(C)c(=O)c2c(SCC(=O)NC34CC5CC(CC(C5)C3)C4)nc(CC(C)C)nc21,inactive,–
O=C(Nc1cccc(C(=O)N2CCN(c3cccc(Cl)c3)CC2)c1)c1ccccc1,"inconclusive: 29.1 µM [cytotoxic, single point]",–
CCOC(=O)N1CCN(C(=O)C2CCCN(Cc3nc(-c4ccc(Cl)cc4)oc3C)C2)CC1 (centres undefined),"inconclusive: 23.1 µM [cytotoxic, partial curve]",–
CCOC(=O)c1sc2nc(C)nc(NCc3ccc(F)cc3)c2c1C,active: 18.4 µM,–
COc1ccc(N2CCN(Cc3csc(C)c3-c3ccc(C)cc3)CC2)cc1,"inconclusive: 29.1 µM [cytotoxic, single point]",–
CCC(CO)Oc1cc(NCc2ccc(C)c(C)c2)c2ncn(C(C)C)c2c1 (centres undefined),"inconclusive: 29.1 µM [cytotoxic, single point]",–
Cc1cc(SCC(=O)N(C)C2CCS(=O)(=O)C2)nc2c(C)cccc12 (centres undefined),inactive,–
Fc1cccc2sc(Nc3nc4cc5c(cc4s3)OCCO5)nc12,"inconclusive: 29.1 µM [cytotoxic, single point]",–
Cc1ccc(NC(=O)CSc2ccc(-c3ccccn3)nn2)cc1,–,inconclusive: -34% [cytotoxic]
Cc1cc(C)c(C(O)c2ncc(-c3cccc4ccccc34)[nH]2)c(C)c1 (centres undefined),"inconclusive: 18.4 µM [cytotoxic, single point]",–
CN(C)CCCNc1nc2cc(-c3cnn(Cc4ccccc4)c3)sc2c(=O)n1C,active: 9.2 µM,–
CCCS(=O)(=O)NCc1ccc2c(c1)cc(C)n2C,"inconclusive: 35.5 µM [cytotoxic, single point]",–
Cc1csc(=O)n1CCC(=O)OCC(=O)N(C)c1c(N)n(Cc2ccccc2)c(=O)[nH]c1=O,inactive,–
